In PubChem BioAssay (Tox21):
“And” between values parts separate entries of the source, which are not always exact repeats. Equal entries are not always repeated. The shares of active, inactive and inconclusive entries below differ from those in the screen. Where the call is inconclusive, the potency comes from a doubtful curve fit. The source made the active and inactive calls. Unless noted, calls come from the whole dose curve.

What was measured:
[1] = molecular target: Thyrotropin receptor (Homo sapiens) (UniProt P16473); assay: qHTS assay to identify small molecule antagonists of the thyroid stimulating hormone receptor (TSHR) signaling pathway (AID 1259385); settings: TSHR-HEK293 cAMP HTRF, TSH-stimulated antagonist mode; activity change, negative = inhibition: at 92.4 µM (top of the series) unless noted; note: nearly all actives have a fitted effect of over 20% in size; for activity change, negative = inhibition: % is set by controls: 0 for no effect and ±100 for the full control effect
In short: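 TSHR-HEK293 cells were plated and held 18 h at 37C/5% CO2, then given compound plus Ro20-1724 and stimulated with TSH at 1.5 ng/mL final. After 30 min at room temperature, cAMP was detected with cAMP-d2/anti-cAMP-cryptate (1 h) by fluorescence.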

[2] = qHTS assay to identify small molecule agonists of the estrogen receptor alpha (ER-alpha) signaling pathway in the presence of an antagonist - cell viability counter screen (AID 1259386; active = well fitted curve in the direction sought with a large enough effect in the repeat runs; inconclusive = weak or mixed curves; inactive = no such curve, though single readings can be large; an effect the other way counts as inactive or inconclusive;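 note: cells exposed to compounds for 22 h at 37 °C before the viability read; nearly all actives have a fitted effect of over 30% in size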)
In short: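 Cytotoxicity was measured in parallel with the ERE-luciferase agonist screen, in the same wells. The cells were VM7Luc4E2, which endogenously express ER-alpha, and treatment was with compounds plus 10.0nM ICI-182,780 for 22hr.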

[3] = molecular target: Progesterone receptor (Homo sapiens) (UniProt P06401); assay: qHTS assay to identify small molecule agonists of the progesterone receptor (PR) signaling pathway (AID 1346784); settings: PR-UAS-bla HEK293T, beta-lactamase FRET ratio, 16 h; activation: at 92.4 µM (top of the series) unless noted; note: nearly all actives have a fitted effect of over 30% in size
In short: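 Fluorescence from LiveBLAzer B/G FRET substrate cleavage (2 hr, RT) reported PR activation in PR-UAS-bla HEK 293T cells treated 16 hr at 37C/5% CO2 with compounds; medium contained 2% charcoal-stripped FBS.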

[4] = molecular target: Progesterone receptor (Homo sapiens) (UniProt P06401); assay: qHTS assay to identify small molecule antagonists of the progesterone receptor (PR) signaling pathway (AID 1346795; active = well fitted inhibition curve with a large enough effect in the signal ratio in the repeat runs, not every such curve was filed as active; inconclusive = weak or mixed curves; the % refers to the signal ratio; for activity change, negative = inhibition: % is set by controls: 0 for no effect and ±100 for the full control effect); settings: PR-UAS-bla HEK293T, beta-lactamase FRET ratio, 16 h
In short: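 Fluorescence intensity measured 2 hr after adding beta-lactamase FRET substrate to PR-UAS-bla HEK293T cells that had been co-treated 16 hr with compound and 1 nM R5020 (final concentration) in 2% charcoal-stripped FBS.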

[5] = qHTS assay to identify small molecule antagonists of the progesterone receptor (PR) signaling pathway - cell viability counter screen (AID 1346798; active = well fitted curve in the direction sought with a large enough effect in the repeat runs; inconclusive = weak or mixed curves; inactive = no such curve, though single readings can be large; an effect the other way counts as inactive or inconclusive; note: nearly all actives have a fitted effect of over 50% in size)
In short: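 CellTiter-Glo luminescence; PR-UAS-bla HEK293T, 3,000 cells/well; compound + R5020, 16 hr, 37C/5% CO2; 30 min RT before read.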

[6] = qHTS assay to identify small molecule agonists of the progesterone receptor (PR) signaling pathway - cell viability counter screen (AID 1346799); note: nearly all actives have a fitted effect of over 45% in size
In short: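 In parallel with the beta-lactamase readout, cytotoxicity toward PR-UAS-bla HEK293T cells was measured by CellTiter-Glo luminescence following 16 hr compound incubation in 2% charcoal-stripped FBS medium.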

[7] = qHTS assay to identify small molecule agonists of the TGF-beta/Smad signaling pathway (AID 1346859; active = well fitted activation curve with a large enough effect in the signal ratio in the repeat runs, not every such curve was filed as active; inconclusive = weak or mixed curves; the % refers to the signal ratio; for activation: % is set by controls: 0 for no effect and ±100 for the full control effect); settings: SBE-bla HEK293T, TGF-beta/Smad beta-lactamase reporter, 5 h; activation: at 76.8 µM (top of the series) unless noted
In short: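 After overnight seeding, SBE-bla HEK 293T cells are dosed with compounds in DMSO and kept 5 hr at 37 C, 5% CO2. LiveBLAzer-type FRET substrate is then applied for 2 hr at room temperature.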

[8] = molecular target: Thyrotropin-releasing hormone receptor (Homo sapiens) (UniProt P34981); assay: qHTS assay to identify small molecule antagonists of the thyrotropin-releasing hormone receptor (TRHR) signaling pathway (AID 1346877; active = well fitted inhibition curve with a large enough effect in the repeat runs, not every such curve was filed as active; inconclusive = weak or mixed curves)
In short: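 Antagonism is measured as suppression of the calcium response to 1 nM TRH in TRHR-HEK293 cells that have been dye-loaded for 2 h at 37 °C after overnight plating. Each compound is tested at 15 concentrations in triplicate.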

[9] = qHTS assay to identify small molecule agonists of the TGF-beta/Smad signaling pathway - cell viability counter screen (AID 1346829; active = well fitted curve in the direction sought with a large enough effect in the repeat runs; inconclusive = weak or mixed curves; inactive = no such curve, though single readings can be large; an effect the other way counts as inactive or inconclusive; note: nearly all actives have a fitted effect of over 45% in size)
In short: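 Luminescence from CellTiter-Glo, read after a 30 min room-temperature incubation, gives cell viability of SBE-bla HEK 293T cells treated 5 hr with compounds at 37 C.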

[10] = activity change, negative = inhibition: at 92.4 µM (top of the series) unless noted
Potency is the fitted concentration of half-maximal effect; tags give direction and shape of the fitted curve or compound fluorescence and quenching.

Chain of UniProt P06401 (P06401 whole entry, looked up): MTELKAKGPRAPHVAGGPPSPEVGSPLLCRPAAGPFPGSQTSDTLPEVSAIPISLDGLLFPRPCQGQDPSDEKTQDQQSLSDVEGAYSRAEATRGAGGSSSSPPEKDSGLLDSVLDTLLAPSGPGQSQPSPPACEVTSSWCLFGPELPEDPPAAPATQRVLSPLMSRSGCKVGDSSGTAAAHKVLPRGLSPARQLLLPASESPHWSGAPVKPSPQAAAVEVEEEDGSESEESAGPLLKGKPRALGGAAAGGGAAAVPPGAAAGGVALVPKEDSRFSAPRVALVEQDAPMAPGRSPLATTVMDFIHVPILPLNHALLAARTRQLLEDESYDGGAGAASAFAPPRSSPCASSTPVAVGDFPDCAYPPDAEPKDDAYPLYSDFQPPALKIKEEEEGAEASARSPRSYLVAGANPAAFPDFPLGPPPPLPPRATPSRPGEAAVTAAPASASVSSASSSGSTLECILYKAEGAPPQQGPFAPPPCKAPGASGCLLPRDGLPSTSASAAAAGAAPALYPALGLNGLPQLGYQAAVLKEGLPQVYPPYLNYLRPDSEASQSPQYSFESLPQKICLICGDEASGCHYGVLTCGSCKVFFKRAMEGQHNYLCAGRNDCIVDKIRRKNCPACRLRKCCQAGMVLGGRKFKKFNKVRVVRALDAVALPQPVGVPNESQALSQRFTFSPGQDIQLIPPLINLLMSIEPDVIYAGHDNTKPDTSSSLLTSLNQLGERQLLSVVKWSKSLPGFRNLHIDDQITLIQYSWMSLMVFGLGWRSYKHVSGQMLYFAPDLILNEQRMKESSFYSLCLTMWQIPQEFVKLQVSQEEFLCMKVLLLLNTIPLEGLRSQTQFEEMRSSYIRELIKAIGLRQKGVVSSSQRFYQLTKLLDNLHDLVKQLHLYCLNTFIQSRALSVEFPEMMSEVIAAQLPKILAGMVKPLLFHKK
Chain of UniProt P16473 (P16473 whole entry, looked up): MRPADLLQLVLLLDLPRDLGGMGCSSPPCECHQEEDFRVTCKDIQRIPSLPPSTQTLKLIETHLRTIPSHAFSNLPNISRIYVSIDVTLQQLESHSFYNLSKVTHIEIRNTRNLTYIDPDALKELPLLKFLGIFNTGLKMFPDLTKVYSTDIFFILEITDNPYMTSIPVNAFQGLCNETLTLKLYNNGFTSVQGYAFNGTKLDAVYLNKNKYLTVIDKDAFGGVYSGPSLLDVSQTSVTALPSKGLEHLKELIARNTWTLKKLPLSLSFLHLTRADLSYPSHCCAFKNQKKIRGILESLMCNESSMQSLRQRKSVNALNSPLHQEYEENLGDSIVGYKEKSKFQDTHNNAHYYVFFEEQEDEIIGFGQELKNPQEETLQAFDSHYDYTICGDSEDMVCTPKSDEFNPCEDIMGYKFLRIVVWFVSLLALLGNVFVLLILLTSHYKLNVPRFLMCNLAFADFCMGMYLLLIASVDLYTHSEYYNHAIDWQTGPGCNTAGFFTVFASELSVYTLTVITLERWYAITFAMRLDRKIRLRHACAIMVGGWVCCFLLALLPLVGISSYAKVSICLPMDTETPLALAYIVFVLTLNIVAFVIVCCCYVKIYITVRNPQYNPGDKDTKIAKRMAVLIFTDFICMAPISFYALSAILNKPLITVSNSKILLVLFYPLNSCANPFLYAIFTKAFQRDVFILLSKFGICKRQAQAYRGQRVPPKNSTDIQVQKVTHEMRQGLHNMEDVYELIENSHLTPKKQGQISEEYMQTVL
Chain of UniProt P34981 (P34981 whole entry, looked up): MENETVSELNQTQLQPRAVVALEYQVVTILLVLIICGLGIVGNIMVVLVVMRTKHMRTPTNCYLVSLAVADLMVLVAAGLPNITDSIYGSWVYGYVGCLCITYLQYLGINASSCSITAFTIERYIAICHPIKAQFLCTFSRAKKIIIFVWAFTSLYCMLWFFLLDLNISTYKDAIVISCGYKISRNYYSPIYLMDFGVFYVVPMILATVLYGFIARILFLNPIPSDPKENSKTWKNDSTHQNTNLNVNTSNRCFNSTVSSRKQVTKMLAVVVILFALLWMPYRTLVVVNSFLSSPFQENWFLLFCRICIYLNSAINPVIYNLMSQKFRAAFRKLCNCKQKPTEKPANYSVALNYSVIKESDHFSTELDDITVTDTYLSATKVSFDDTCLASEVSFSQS

In the case of `O=C(c1ccc(O)c(O)c1)c1ccc(O)cc1O`, the Potency [1] is reported as inconclusive: 13.7 µM [falling, single point], the Potency [2] is reported as inconclusive: 68.5 µM [cytotoxic] and the Potency [3] is reported as inconclusive: 54.4 µM [falling, partial curve, poor fit]. The Potency [4, 10] was active: 15.3 µM, the Potency [5] was inconclusive: 54.4 µM [rising, partial curve] and the Potency [6] was inconclusive: 27.3 µM [rising, partial curve]. The Potency [7] was inconclusive: 8.7 µM [rising, full curve].
In the case of `Nc1ncn([C@@H]2O[C@H](CO)[C@@H](O)[C@H]2O)c(=O)n1`, the activity change, negative = inhibition ([4]; at 42.5 µM (top of the series)) is reported as inconclusive: -40.4% and the activity change, negative = inhibition ([4]; at 92.4 µM (top of the series)) is reported as inconclusive: -51.6%.
For `O=C(CC(=O)C(F)(F)F)c1ccccc1`, the Potency [8] was inconclusive: 34.3 µM [inhibitor].
In the case of `CC(=O)Oc1ccc(C2(c3ccc(OC(C)=O)cc3)C(=O)Nc3ccccc32)cc1`, the Potency [1] is reported as inconclusive: 15 µM [falling, partial curve], the Potency [5] is reported as inconclusive: 11.9 µM [rising, full curve, poor fit] and the Potency [6] is reported as inconclusive: 15 µM [rising, partial curve].
For `CCCCC/C=C\C/C=C\CCCCCCCC(=O)NC(C)c1ccccc1` (stereo not given), the Potency [1] was inconclusive: 29.8 µM [falling, single point], the activity change, negative = inhibition [4, 10] was inconclusive: -27.7% [at 42.5 µM] and the Potency [5] was inconclusive: 13.3 µM [rising, full curve]. For the same molecule, the Potency [6] was inconclusive: 13.3 µM [rising, full curve] and the Potency [7] was inconclusive: 21.3 µM.
With `OCC1CCC(CO)CC1` (stereo not given) the Potency [1] was “inactive” and the Potency [5] was inconclusive: 2.45 µM [cytotoxic, single point].
With `CC(C)C(C)(C)C(C)(C)C(C)(C)S` the Potency [1] was inconclusive: 2.17 µM [falling, partial curve], the Potency [4, 10] was inconclusive: 0.545 µM [falling, full curve, poor fit] and the Potency [5] was inconclusive: 54.5 µM [cytotoxic, partial curve, poor fit]. For the same molecule, the Potency [6] was inconclusive: 54.5 µM [cytotoxic, partial curve].
For `c1ccc2sc(SSN3CCOCC3)nc2c1`, the Potency [1] was inconclusive: 68.5 µM [falling, single point] and inconclusive: 30.6 µM [falling, single point], the activity change, negative = inhibition [4, 10] was inconclusive: -40.1% and inconclusive: -33.8% and the Potency [6] was “inactive”.
With `NNc1nc(-c2ccc([N+](=O)[O-])cc2)cs1` the Potency [1] was inconclusive: 30.6 µM [falling, partial curve], the Potency [4, 10] was inconclusive: 7.7 µM [rising, partial curve] and the Potency [6] was inconclusive: 27.3 µM. The Potency [9] was inconclusive: 38.9 µM [cytotoxic, partial curve, poor fit].
With `Cc1ccccc1N=Nc1ccc(N=Nc2c(O)ccc3ccccc23)c(C)c1` the Potency [1] was “inactive” and the Potency [5] was inconclusive: 2.98 µM [cytotoxic, single point].
With `O=C(CCCN1CCC(O)(c2cccc(C(F)(F)F)c2)CC1)c1ccc(F)cc1` the Potency [1] was inconclusive: 33.5 µM, the activity change, negative = inhibition [4, 10] was inconclusive: -31.6% [at 42.5 µM] and the Potency [6] was inconclusive: 6.68 µM [cytotoxic, single point].
With `Cc1cccc(Oc2ccccc2)c1` the Potency [1] was “inactive”, the Potency [5] was active: 21.1 µM and the Potency [6] was inconclusive: 75 µM [rising, single point].
With `CCN(CC)c1cccc(O)c1` the Potency [1] was inconclusive: 0.0624 µM [falling, single point], the activity change, negative = inhibition [4, 10] was inconclusive: -29.7% and the activation [7] was inconclusive: 18.8%.
For `C/C=C(/C(=C/C)c1ccc(OC(C)=O)cc1)c1ccc(OC(C)=O)cc1`, the Potency [1] was “inactive”, the Potency [4, 10] was active: 8.41 µM and the Potency [6] was inconclusive: 11.9 µM [rising, partial curve, poor fit].
With `CO[C@H]1C=CO[C@@]2(C)Oc3c(C)c(O)c4c(O)c(c(/C=N/N5CCN(C)CC5)c(O)c4c3C2=O)NC(=O)/C(C)=C\C=C[C@H](C)[C@H](O)[C@@H](C)[C@@H](O)[C@@H](C)[C@H](OC(C)=O)[C@@H]1C` the Potency [1] was inconclusive: 68.9 µM [partial curve], the Potency [4, 10] was inconclusive: 61.4 µM and the Potency [5] was inconclusive: 48.8 µM [rising, partial curve]. For the same molecule, the Potency [6] was inconclusive: 54.8 µM [rising, partial curve] and the Potency [7] was inconclusive: 55.3 µM [rising, partial curve, poor fit].
